Measurements as given in PubChem BioAssay AID504332 (National Center for Advancing Translational Sciences (NCATS), 2011).
The campaign covered roughly 350,000 compounds. About 31,000 (8.9%) were called active. Inconclusive results, whose numbers are uncertain, are shown with a selection of clear calls. Calls come from the whole dose curve; as a rule, active = well fitted inhibition curve with a large enough effect; inconclusive = small, poorly fitted or top-dose-only effect; inactive = no such curve, though single readings can be large or run the other way. A potency beside an inconclusive call is a rough fit, not a confirmed value.

molecular target: Histone-lysine N-methyltransferase EHMT2 (Homo sapiens) (UniProt Q96KQ7); assay: qHTS Assay for Inhibitors of Histone Lysine Methyltransferase G9a; conditions: G9a H3K9 monomethylation, AlphaScreen, 2 h; activity, negative = inhibition: at 59 µM (top of the series) unless noted; note: nearly all actives have a fitted effect of over 75% in size
In short: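 Methyltransferase reactions run at room temperature for 2 h (20 nM enzyme, 500 nM biotin-H3K9 peptide, 20 uM SAM) after a 15 min compound preincubation; product detected by AlphaScreen beads and anti-H3K9me1 antibody.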
% is set by controls: 0 for no effect and ±100 for the full control effect; potency is the fitted concentration of half-maximal effect; tags give direction and shape of the fitted curve.

Sequence of UniProt Q96KQ7 (Q96KQ7 whole entry, looked up): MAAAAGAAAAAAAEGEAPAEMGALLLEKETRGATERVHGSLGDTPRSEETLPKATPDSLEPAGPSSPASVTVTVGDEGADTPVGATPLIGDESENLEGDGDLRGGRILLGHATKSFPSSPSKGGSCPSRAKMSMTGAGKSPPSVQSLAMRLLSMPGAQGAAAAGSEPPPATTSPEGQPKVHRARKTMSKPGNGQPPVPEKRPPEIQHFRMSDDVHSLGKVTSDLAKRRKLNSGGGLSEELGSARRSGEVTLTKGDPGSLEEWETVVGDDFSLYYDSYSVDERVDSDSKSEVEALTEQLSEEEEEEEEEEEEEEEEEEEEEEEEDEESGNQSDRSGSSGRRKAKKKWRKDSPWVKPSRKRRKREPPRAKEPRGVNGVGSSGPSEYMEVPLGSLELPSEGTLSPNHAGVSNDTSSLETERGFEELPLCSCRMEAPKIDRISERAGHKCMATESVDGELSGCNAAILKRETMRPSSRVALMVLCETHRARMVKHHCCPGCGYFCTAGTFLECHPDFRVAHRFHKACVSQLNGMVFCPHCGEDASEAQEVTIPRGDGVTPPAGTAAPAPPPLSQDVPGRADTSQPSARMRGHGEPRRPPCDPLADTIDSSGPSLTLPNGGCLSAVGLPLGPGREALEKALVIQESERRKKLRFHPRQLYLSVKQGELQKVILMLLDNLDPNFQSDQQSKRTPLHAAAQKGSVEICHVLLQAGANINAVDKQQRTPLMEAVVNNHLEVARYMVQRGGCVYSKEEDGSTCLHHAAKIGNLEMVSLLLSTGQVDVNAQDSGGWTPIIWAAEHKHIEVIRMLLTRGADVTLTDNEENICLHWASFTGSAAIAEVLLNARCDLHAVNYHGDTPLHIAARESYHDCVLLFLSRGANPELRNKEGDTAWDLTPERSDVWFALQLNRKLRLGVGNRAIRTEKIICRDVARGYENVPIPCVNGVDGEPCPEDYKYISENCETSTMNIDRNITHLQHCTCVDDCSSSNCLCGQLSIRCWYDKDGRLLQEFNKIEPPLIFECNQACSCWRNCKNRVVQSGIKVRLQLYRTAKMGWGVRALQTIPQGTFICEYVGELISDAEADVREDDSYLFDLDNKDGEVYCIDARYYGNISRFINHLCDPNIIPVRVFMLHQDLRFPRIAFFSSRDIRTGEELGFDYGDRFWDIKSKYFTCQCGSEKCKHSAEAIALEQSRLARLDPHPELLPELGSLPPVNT

Row | SMILES | Potency | activity, negative = inhibition
1 | O=C(COC(=O)/C=C/c1ccc(Br)o1)Nc1ccccc1F | inconclusive: 56.2 µM [inhibitor, single point] | 
2 | COc1ccc(/C=N/NC(=O)c2cccc(C(=O)N/N=C/c3ccc(OC)c(OC)c3)n2)cc1OC | inactive | 
3 | O=C1CN(C(=O)COc2ccc(F)cc2Br)c2ccccc2N1 | inconclusive: 50.1 µM [inhibitor, partial curve] | 
4 | COc1ccc2nc(SCCC(=O)O)cc(C)c2c1 | inactive | 
5 | CC1(C(=O)N2CCN(c3ccc([N+](=O)[O-])cc3)CC2)CC1(Cl)Cl (stereo not drawn) | inconclusive: 89.1 µM [inhibitor, single point] | 
6 | CC1=CC(=O)C2=C(C)CC[C@@H]3[C@@H](OC(=O)[C@H]3C)[C@H]12 | inactive | 
7 | Cn1c(-c2ccco2)n[nH]c1=S | active: 4.47 µM | 
8 | Cc1cc(C)n(Cc2ccc(C(=O)Nc3cccc(Br)c3)o2)n1 | active: 79.4 µM | 
9 | COc1ccccc1Nc1nc(N)nc(CN2CCCCC2)n1 | inconclusive: 28.2 µM [inhibitor, partial curve, poor fit] | 
10 | CC(C)Cc1nnc(NS(=O)(=O)c2ccc(Cl)cc2)s1 | inconclusive: 79.4 µM [inhibitor, single point] | 
11 | COc1ccc2ccccc2c1CNC(=O)CC1C(=O)NCCN1CC(C)(C)C (stereo not drawn) | inconclusive: 39.8 µM [inhibitor, single point] | 
12 | CC(C)(C)c1ccc(C(=O)NCC(c2cccnc2)N2CCc3ccccc3C2)cc1 (stereo not drawn) | inconclusive: 7.08 µM [inhibitor, partial curve, poor fit] | 
13 | O=[N+]([O-])c1cc(-c2cnc3ccccc3n2)ccc1Oc1ccc(Br)cc1 | inconclusive: 70.8 µM [inhibitor, single point] | 
14 | COCCn1nnnc1C(C(C)C)N1CCC(Cc2ccccc2)CC1 (stereo not drawn) | inconclusive: 89.1 µM [inhibitor, single point] | 
15 | Cc1cc(C)c(C)c(S(=O)(=O)NCC(=O)Nc2sc3c(c2C(N)=O)CCCC3)c1C | inconclusive: 56.2 µM [inhibitor, partial curve, poor fit] | 
16 | Cc1cc(C)cc(N(C(=O)c2ccccn2)C(C(=O)NC2CCCCC2)c2cccs2)c1 (stereo not drawn) | inactive | 
17 | COc1cc(C(=O)NC(=S)NNC(=O)c2ccc3c(c2)OCO3)cc(OC)c1OC | active: 35.5 µM | 
18 | CN(c1ncc(C(F)(F)F)cc1Cl)N1C(=O)C2ONC3(C(=O)CC(C)(C)CC3=O)C2C1=O (stereo not drawn) | inconclusive: 79.4 µM [inhibitor, single point] | 
19 | Cc1cc(NC(=O)c2ccc(S(=O)(=O)Nc3ccccc3)cc2)no1 | inconclusive: 89.1 µM [inhibitor, single point] | 
20 | COc1ccc(N2CCN(C(=O)CSCc3ccc(C)cc3)CC2)cc1 | inconclusive: 8.91 µM [inhibitor, full curve, poor fit] | 
21 | CC(Sc1n[nH]c(-c2ccccc2)n1)C(=O)c1c(N)n(C)c(=O)n(C)c1=O (stereo not drawn) | active: 50.1 µM | 
22 | COc1ccc(-c2nc(CSCC(=O)N3CCN(c4ccccc4)CC3)c(C)o2)cc1 | inconclusive: 31.6 µM [inhibitor, partial curve, poor fit] | 
23 | CCCn1c(SCC(=O)NCC(=O)Nc2ccc(F)c(F)c2F)nc2ccccc2c1=O |  | inactive: 15.7% [at 12.7 µM]

Row | SMILES | Potency | activity, negative = inhibition
24 | Cc1cs/c(=N\N=C2CCCCC2)n1Cc1ccco1 | inconclusive: 44.7 µM [inhibitor, partial curve, poor fit] | 
25 | CCOc1cc(S(=O)(=O)NCCc2c(C)[nH]c3ccc(C)cc23)ccc1Br | inconclusive: 28.2 µM [inhibitor, single point] | 
26 | COC(=O)C1=C(C)N(Cc2ccccc2)C(=NCC(C)C)N[C@H]1c1ccc(Br)cc1 |  | inactive: -4.78% [at 12.7 µM]
27 | Cc1c(Cl)cccc1Nc1nn2c(=O)c3ccc(C(=O)N(C)Cc4ccccc4)cc3nc2s1 | inactive | 
28 | Cc1ccc(NC(=O)CCS(=O)(=O)c2ccc3c(c2)oc(=O)n3C)c(Br)c1 | inconclusive: 14.1 µM [inhibitor, partial curve] | 
29 | CC(=O)Nc1cccc(-c2csc(NCc3ccco3)n2)c1 |  | inactive: -19.6% [at 2.33 µM]
30 | S=C1NCN(C2CCCCC2)CN1CCc1ccccc1 | inconclusive: 56.2 µM [inhibitor, partial curve, poor fit] | 
31 | O=C(NNC(=S)NC1CCCCC1)c1ccc(Cl)s1 | inconclusive: 44.7 µM [inhibitor, partial curve, poor fit] | 
32 | Cc1cc2c(cc1S(=O)(=O)N1CCN(c3ccccc3)CC1)OCCN2C | active: 39.8 µM | 
33 | Cc1cc(C2C(=O)CC(=O)CC2c2ccccc2)on1 (stereo not drawn) | inconclusive: 39.8 µM [inhibitor, single point] | 
34 | COc1ccccc1CNC(=O)COC(=O)CNS(=O)(=O)c1ccc(NC(C)=O)cc1 | inconclusive: 3.55 µM [inhibitor, single point] | 
35 | COc1ccccc1/C=C/CN1CC(C)OC(C)C1 (stereo not drawn) | inconclusive: 12.6 µM [inhibitor, single point] | 
36 | CCN(CC)CCN1C(=O)c2oc3ccccc3c(=O)c2C1c1cccc(Br)c1 (stereo not drawn) | active: 50.1 µM | 
37 | C=C1CCc2c([nH]c3ccc(OCC(C)C)cc23)C1=O | inactive | 
38 | Cc1c(NC(=O)Nc2ccccc2Cl)sc(=S)n1C | inconclusive: 39.8 µM [inhibitor, single point] | 
39 | CC1=Nc2cc([N+](=O)[O-])ccc2NC(C)(C)C1 | active: 31.6 µM | 
40 | CC(C#N)(NC(=O)COC(=O)c1ccccc1NCCO)C1CC1 (stereo not drawn) | inconclusive: 89.1 µM [inhibitor, single point] | 
41 | O=C1OCC2OC(O)C(O)C(O)C2OC(=O)c2cc(O)c(O)c(O)c2-c2c(O)c(O)c3oc(=O)c4c(c(O)c(O)c5oc(=O)c2c3c54)-c2c1cc(O)c(O)c2O (stereo not drawn) |  | inconclusive: -188% [inhibitor] [at 12.7 µM]
42 | O=C(Nc1ccc([N+](=O)[O-])cc1)N1CCN(C(=O)C2CCCO2)CC1 (stereo not drawn) | inconclusive: 89.1 µM [inhibitor, single point] | 
43 | COc1cc(OC)cc(C(=O)Nc2ccc(Cn3ccnc3)cc2)c1 | inconclusive: 1 µM [inhibitor, partial curve, poor fit] | 
44 | Cc1ccc(S(=O)(=O)CCc2nnc(NC(=O)CCl)s2)cc1C | active: 79.4 µM | 
45 | CC(C)(C)OC(=O)N1CCC(c2c(C(=O)Nc3ccc4c(c3)OCO4)cnn2-c2ccccc2)CC1 | inactive | 
46 | COc1ccc(OCC(O)CNS(=O)(=O)c2ccc(NC(C)=O)cc2)cc1 (stereo not drawn) | inactive | 

Row | SMILES | Potency | activity, negative = inhibition
47 | CCc1nc(N2CCCC(C)C2)c2oc3ccccc3c2n1 (stereo not drawn) | inconclusive: 89.1 µM [inhibitor, single point] | 
48 | CCOC(=O)N1CCN(C(=O)c2ccc3c(c2)N(Cc2ccc(C)cc2)CCS3)CC1 |  | inconclusive: -60.3% [inhibitor] [at 12.7 µM]
49 | CCCCC(=O)NNC(=S)NC(=O)c1ccc(C)cc1 | active: 11.2 µM | 
50 | CC1=CC(c2ccccc2)=Nc2ccc(C)cc2N1 | inconclusive: 31.6 µM [inhibitor, single point] | 
51 | CN(C)c1oc(-c2ccccc2Cl)nc1P(=O)(c1ccccc1)c1ccccc1 | inconclusive: 35.5 µM [inhibitor, single point] | 
52 | CC(C)(C)C1CCc2c(sc(NC(=O)CSc3nnc(-c4ccccc4)o3)c2C#N)C1 (stereo not drawn) | inconclusive: 25.1 µM [inhibitor, single point] | 
53 | O=c1c(Cl)c(N/N=C/c2ccc(Br)cc2)cnn1-c1ccccc1 | inconclusive: 22.4 µM [inhibitor, single point] | 
54 | Cc1ccc(S(=O)(=O)N2CCSC2c2ccco2)cc1 (stereo not drawn) | inconclusive: 39.8 µM [inhibitor, single point] | 
55 | N#C/C(=C\c1ccc([N+](=O)[O-])o1)c1nc2ccccc2[nH]1 | inactive | 
56 | COc1cccc(OCCn2c(-c3ccc(Br)cc3)nc3ccccc3c2=O)c1 | inactive | 
57 | C=CCSc1nnc(NC(=O)c2cccc(S(=O)(=O)N(C)c3ccccc3)c2)s1 | inactive | 
58 | COC(=O)c1ccc(NC(=O)CCc2c(C)nn(-c3ccc(N4CCCCC4)nn3)c2C)cc1 | inactive | 
59 | CC(C)NC(=O)CN(C(=O)CCC(=O)Nc1nccs1)c1ccc2c(c1)OCO2 | inactive | 
60 | O=C(NCCCN1CCOCC1)c1cc(Cl)ccc1Cl | inconclusive: 89.1 µM [inhibitor, single point] | 
61 | COc1ccc(/C=N/N2CCOCC2)cc1COc1ccc(Cl)cc1 | inconclusive: 31.6 µM [inhibitor, single point] | 
62 | O=C(CN1C(=O)S/C(=C\C=C\c2ccccc2)C1=O)N1CCCCC1 | inconclusive: 89.1 µM [inhibitor, single point] | 
63 | CN1CCN(Cc2nc3c([nH]2)c(=O)[nH]c(=O)n3C)CC1 | inconclusive: 89.1 µM [inhibitor, single point] | 
64 | COc1ccccc1NC(=O)C(=O)NCC(c1cccnc1)N1CCc2ccccc2C1 (stereo not drawn) | inconclusive: 3.55 µM [inhibitor, partial curve, poor fit] | 
65 | Cc1c(C(=O)OC(C)C)sc(NC(=O)c2cccnc2)c1C#N | inconclusive: 12.6 µM [inhibitor, partial curve, poor fit] | 
66 | CCc1nn2cc(C(=O)c3ccccc3O)cnc2c1-c1ccc(F)cc1 | inconclusive: 89.1 µM [inhibitor, single point] | 
67 | CC(C(=O)Nc1ccc2c(c1)OCCO2)N(C)CC(=O)Nc1ccccc1Br (stereo not drawn) | inconclusive: 89.1 µM [inhibitor, single point] | 
68 | COc1ccc(OCC(=O)Nc2ccc3c(c2)nc(CN2CCN(C(C)=O)CC2)n3C)cc1 | inconclusive: 70.8 µM [inhibitor, single point] | 
